Laboratory results: paper PMC4336329 (PLoS ONE, 2015)
Screen size: about 310,000 compounds; about 2,200 (0.71%) showed an effect of 50% or more. The effect is printed as a negative number. Some of the results follow.

What follows are compounds tested against human ether-à-go-go-related gene (hERG) potassium channel (human, UniProt Q12809) (assay: primary screen, population patch clamp on CHO cells stably expressing hERG).
Sequence of human ether-à-go-go-related gene (hERG) potassium channel (Q12809 whole entry, looked up): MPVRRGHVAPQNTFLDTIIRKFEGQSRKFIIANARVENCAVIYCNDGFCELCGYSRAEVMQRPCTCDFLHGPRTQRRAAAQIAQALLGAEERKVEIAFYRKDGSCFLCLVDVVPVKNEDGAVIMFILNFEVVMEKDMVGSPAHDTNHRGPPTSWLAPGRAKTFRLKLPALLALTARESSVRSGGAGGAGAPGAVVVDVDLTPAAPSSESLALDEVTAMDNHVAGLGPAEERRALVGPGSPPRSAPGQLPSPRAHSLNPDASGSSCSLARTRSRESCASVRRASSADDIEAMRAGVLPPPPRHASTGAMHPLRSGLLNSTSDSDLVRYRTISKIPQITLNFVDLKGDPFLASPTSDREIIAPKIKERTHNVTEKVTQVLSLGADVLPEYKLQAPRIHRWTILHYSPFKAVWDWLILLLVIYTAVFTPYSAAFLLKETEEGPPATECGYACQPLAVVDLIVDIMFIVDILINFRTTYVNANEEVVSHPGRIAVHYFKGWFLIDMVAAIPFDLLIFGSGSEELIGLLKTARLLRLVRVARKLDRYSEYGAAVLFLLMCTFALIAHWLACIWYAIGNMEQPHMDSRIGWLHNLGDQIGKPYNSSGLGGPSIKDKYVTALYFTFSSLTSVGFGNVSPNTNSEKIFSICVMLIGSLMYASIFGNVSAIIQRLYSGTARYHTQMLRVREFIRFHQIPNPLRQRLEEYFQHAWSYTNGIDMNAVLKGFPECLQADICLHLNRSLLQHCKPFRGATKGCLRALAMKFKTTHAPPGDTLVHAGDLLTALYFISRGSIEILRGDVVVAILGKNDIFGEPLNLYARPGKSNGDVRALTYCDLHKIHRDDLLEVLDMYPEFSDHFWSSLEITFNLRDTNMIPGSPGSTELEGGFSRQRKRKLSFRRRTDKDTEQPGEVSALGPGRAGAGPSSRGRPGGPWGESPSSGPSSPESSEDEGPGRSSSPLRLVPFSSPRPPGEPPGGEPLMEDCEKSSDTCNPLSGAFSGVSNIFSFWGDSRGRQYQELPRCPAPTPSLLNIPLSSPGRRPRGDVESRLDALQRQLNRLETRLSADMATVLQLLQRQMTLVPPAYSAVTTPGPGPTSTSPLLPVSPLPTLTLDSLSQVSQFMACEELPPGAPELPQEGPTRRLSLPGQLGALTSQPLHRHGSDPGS

Row | SMILES | hERG current change (%, negative = inhibition) at 1uM [%]
1 | CN(C)C(=O)c1nc2ccccc2s1 | 12.6
2 | CN1C(=O)/C(=C/c2cn(CC(=O)NCc3ccco3)c3ccccc23)NC1=S | 7.56
3 | CO/N=C/NC(=O)c1ccc([N+](=O)[O-])c(CS(=O)(=O)c2ccc(Cl)cc2)c1 | 6.28
4 | COCCNC(=O)c1cc2c(=O)[nH]c3ccccc3c2s1 | 13.5
5 | COC(=O)CCc1c(C)c(C(=O)c2cccc(OC)c2OC)c2ccccn12 | -1.5
6 | Cn1ncc(Cl)c1C(=O)NCc1ccc(Cl)cc1 | 2.58
7 | Cc1cc(SCC(=O)N(C)CC(=O)Nc2ccc(F)cc2)nc2ccccc12 | -6.3
8 | Cc1noc(C)c1COC(=O)c1ccc2ccccc2n1 | -7.95
9 | CN1CCC(N(C)C(=O)CNC(=O)c2ccc(C(C)(C)C)cc2)CC1 | 8.48
10 | O=C(c1ccc(=O)oc1)N1CCC(C(O)(c2ccccc2)c2ccccc2)CC1 | 10.9
11 | O=C(O)C1=C[C@@H](c2ccccc2)C[C@@H](OCc2ccc(CO)cc2)O1 | 18.4
12 | C#CCn1c(=NC(=O)c2ccco2)sc2cccc(Cl)c21 | 6.96
13 | CC(=O)c1ccc(N2CCN(C(=O)c3cc(C)on3)CC2)cc1 | -5.03
14 | CCOc1ccc(N2CC(NS(=O)(=O)c3cccnc3)CC2=O)cc1 (centres unmarked) | 0.221
15 | COCCNC(=O)c1c[nH]c2ccc(S(=O)(=O)N(C)c3ccc(C)c(C)c3)cc2c1=O | -6.83
16 | COc1ccc(NC2CCCN(C(=O)CCc3scnc3C)C2)cc1 (centres unmarked) | 15.5
17 | COC(=O)C1=NNC2(C)C(=O)N(c3ccc(C)cc3)C(=O)C12 (centres unmarked) | 13.6
18 | COc1ccc(OC)c(CCNC(=O)C2CCN(c3ncnc4c3nc3n4CCCCC3)CC2)c1 | 1.42
19 | O=C(COc1nsnc1N1CCOCC1)Nc1cccc(Cl)c1 | 1.5
20 | NS(=O)(=O)c1ccc(NC(=O)CCC(=O)N2CCOCC2)cc1 | 14
21 | COc1ccc(OC)c(-n2c(-c3cc(-c4ccco4)[nH]n3)n[nH]c2=S)c1 | 9.23
22 | CCCCCCCCCOC1OC(CO)C(O)C(O)C1NC(C)=O (centres unmarked) | 7.17

Row | SMILES | hERG current change (%, negative = inhibition) at 1uM [%]
23 | COCc1nnc(NC(=O)C2CCN(C(=O)c3ccco3)CC2)s1 | 18.7
24 | COC(=O)c1[nH]c2cc(OC)ccc2c1NC(=O)CN1CCN(c2cccc(C)c2)C(C)C1 (centres unmarked) | 10.3
25 | COc1ccc(OC)c(-c2cc(C3CCN(c4ncccc4[N+](=O)[O-])CC3)[nH]n2)c1 | 6.64
26 | COc1ccc(C(=O)NCCc2ccccn2)cc1S(=O)(=O)Nc1ccc(Br)cc1 | -5.26
27 | CCN1C(=O)[C@H]2[C@H]3[C@H](O)[C@H](O)C/C(=N\O[C@H](C)c4cn([C@H](CO)Cc5ccccc5)nn4)[C@@H]3CC[C@H]2C1=O | 8.69
28 | CCOc1ccc(NC(=S)N2CCN(C/C=C/c3ccccc3)CC2)cc1 | 0.394
29 | COc1cc(SC)ccc1C(=O)N1CCc2ccccc21 | 13.9
30 | Cc1nc2c3ccccc3nc(NNC(=O)CCC(=O)NCCC(C)C)n2n1 | 9.46
31 | O=c1[nH]c(/C=C/c2ccccc2Cl)c([N+](=O)[O-])c(=O)[nH]1 | 10.1
32 | Cc1ccc(CC(=O)Nc2cccc(C#N)c2)cc1 | 16
33 | O=C(NC(=S)Nc1ccc(CN2CCOCC2)cc1)c1cc2ccccc2o1 | 14.7
34 | CCOc1cc(/C=C2\N=C(SC(C)C(N)=O)N(c3ccc(OC(F)F)cc3)C2=O)ccc1O (centres unmarked) | 11.9
35 | COc1ccc(C(=O)N2CCC(C(N)=O)CC2)cc1S(=O)(=O)N1CCCC1 | 12.1
36 | COc1ccc(CCNC(=O)C2CC(=O)N(C3CCCCC3)C2)cc1OC (centres unmarked) | 21.5
37 | COc1ccc(CNC(=O)COC(=O)c2n[nH]c3ccccc23)cc1OC | -16.1
38 | Cc1nc2cc(NC(=O)CS(=O)(=O)c3ccccc3)ccc2s1 | 1.45
39 | CCCCN(C)C(=O)C(Cc1ccccc1)NS(=O)(=O)c1ccc2c(c1)c(=O)n(C)c(=O)n2C (centres unmarked) | -0.619
40 | CCN(CC)C(=O)c1[nH]cnc1C(=O)N[C@@H](Cc1ccccc1)C(=O)OCc1ccccc1 | 13
41 | CCNc1nc(NC(C)CC)nc(Oc2ccc(=O)[nH]n2)n1 (centres unmarked) | 3.97
42 | COc1ccccc1CCNC1CCC(C(C)(C)C)CC1 (centres unmarked) | -4
43 | Cc1cc(C)c2cc(CNC3CCCC3)c(Cl)nc2c1 | 7
44 | CC1(C)CC(O)CC(C)(C)N1CC(O)COCCOc1ccc(Br)cc1 (centres unmarked) | -3.04

Row | SMILES | hERG current change (%, negative = inhibition) at 1uM [%]
45 | COc1ccc(C2=NO[C@@H]3C(=O)N(Cc4ccccc4)C(=O)[C@H]23)cc1OC | 3.91
46 | C/C(=N\Nc1ccc(F)cc1F)c1cccs1 | 15.3
47 | [O-][n+]1c2ccccc2c2n1CCCN=C2c1ccc(Cl)cc1 | -5.62
48 | Cc1ccc(S(=O)(=O)N2CCN(C(=O)C(C)Cn3nc(C)c(C)c3C)CC2)cc1 (centres unmarked) | 5.67
49 | CC(C)(C)N(Cc1cc2ccccc2[nH]c1=O)C(=O)c1ccco1 | 10.4
50 | Cl.O=C(O)Cc1cnc[nH]1 | 44.5
51 | CN1CCN(CCC(=O)Nc2ccc(C3CCCC3)cc2)CC1.Cl | -12.4
52 | O=C(COc1ccccc1)N=C1SC2CS(=O)(=O)CC2N1c1cccc(F)c1 (centres unmarked) | 13.9
53 | Cc1ccc(S(=O)(=O)Cc2ccc(C(=O)N3CCN(c4ccccn4)CC3)o2)cc1 | 11.6
54 | COC(=O)C1=CN(Cc2ccccc2)C=C(C(=O)OC)C1c1ccc(O)c(OC)c1 | 17.4
55 | COC(=O)c1cc(S(=O)(=O)N(C)C2CCCCC2)cn1C | 10.5
56 | O=C(CC(C(=O)O)C1CCCO1)Nc1cccc(C(F)(F)F)c1 (centres unmarked) | 13.3
57 | CCn1c(SCC(=O)NC2=NCCS2)nnc1C(C)NC(=O)c1ccccc1Br (centres unmarked) | 13.2
58 | COc1ccc(C(=O)NCC2CCCO2)cc1S(=O)(=O)N1CCCc2ccccc21 (centres unmarked) | 5.55
59 | CCOCCCNC(=S)Nc1ccc2nc(N3CCCC3)cc(C)c2c1 | -74.8
60 | O=C(CSc1nc2scc(-c3ccco3)c2c(=O)n1-c1ccccc1)NCC1CCCO1 (centres unmarked) | -4.9
61 | Cc1ccc(C)c(OC(=O)C2CSC3(C)CCC(=O)N23)c1C (centres unmarked) | -0.975
62 | COc1cc(NC(=O)CCc2nnc3ccc(N4CCOCC4)nn23)cc(OC)c1OC | 12.2
63 | O=C(/C=C/c1cccc([N+](=O)[O-])c1)NC(=S)Nc1cccc(NC(=O)c2ccccc2Cl)c1 | 6.61
64 | CC(Nc1nc(-c2ccc3c(c2)NC(=O)CO3)cs1)c1ccccc1 (centres unmarked) | 10.8
65 | COCCc1nc2ccc(C(=O)N3CCCCC3COC)cc2o1 (centres unmarked) | -26.2
66 | COc1ccc(N2CCN(C(=O)c3ccccc3)CC2)c([N+](=O)[O-])c1 | -33.8

Row | SMILES | hERG current change (%, negative = inhibition) at 1uM [%]
67 | O=C(COc1ccc2ccc(=O)oc2c1)Nc1cccc(S(=O)(=O)N2CCCCC2)c1 | 1.49
68 | Br.CN1CCN(CC(=O)c2cc(C(C)(C)C)c(O)c(C(C)(C)C)c2)CC1 | 7.37
69 | COc1c(C)cc(C(=O)C2CCCN(Cc3cccc(C)n3)C2)cc1C (centres unmarked) | -11
70 | Cn1nnnc1Sc1ncnc2scc(-c3ccc[nH]3)c12 | 13
71 | Cc1cc(C)c(S(=O)(=O)N2CCN(C(=O)C3COc4ccccc4O3)CC2)c(C)c1 (centres unmarked) | -0.477
72 | O=C(CCn1cccc1)Nc1cc(F)ccc1F | 16.9
73 | CCOc1ccc(C2C(C(N)=O)=C(C)Nc3ncnn32)cc1OC (centres unmarked) | 3.08
74 | Cc1ccccc1OCC(=O)NCCNC(=O)c1ccccn1 | 14
75 | O=C1C=C(c2ccc(C(=O)O)cc2)C[C@@H](c2ccc3c(c2)OCO3)C1 | 10.1
76 | O=C(N/N=C/C(Cl)=C/c1ccc([N+](=O)[O-])cc1)C(=O)Nc1ccccc1C(=O)O | 7.43
77 | CC(C)(C)NC(=O)C(c1cccs1)N(C(=O)c1csnn1)c1ccccc1F (centres unmarked) | 16.5
78 | O=C(NNC(=O)C1[C@H]2CCCC[C@@H]12)Nc1cccc2ccccc12 (some centres unmarked) | 3.75
79 | CCOC(=O)C(=NC(C)CC)NNc1cccc(C(F)(F)F)c1 (centres unmarked) | 7.88
80 | Cc1cc(C(F)F)n2nc(C(=O)Nc3sc4c(c3C#N)CCC4)nc2n1 | 0.413
81 | O=C(Nc1nc(-c2ccncc2)cs1)C1c2ccccc2Oc2ccccc21 | 13.2
82 | Cc1nn(C(C)C(=O)N2CCCC2)c(=O)c2nn(-c3ccccc3)c(C)c12 (centres unmarked) | 6
83 | COc1cc(SC)ccc1C(=O)OCC(=O)NCCNC(=O)COC(=O)c1ccc(SC)cc1OC | 15.5
84 | O=C1c2cccc3c(N4CCCCC4)ccc(c23)C(=O)N1c1cccc(O)c1 | 12.3
85 | COc1ccc(CNC(=O)CN2C(=O)CC(c3ccccc3)=Nc3ccccc32)cc1 | 4.56
86 | CCOC(=O)C(NC(=O)c1cccc(Cl)c1)(OCc1ccccc1)C(F)(F)F (centres unmarked) | -3.61
